According to the supplement of paper PMC8728848:
The other results are listed elsewhere or left out.

Tests used:
Experiment in all cases: glycan array binding signal (z-score within array); higher = stronger binding
Conditions in all cases: glycan notation: IUPAC condensed, linker removed
[1] = molecular target: GlcNAc(b1-3)Gal(b1-4)GlcNAc(b1-3)Gal(b1-4)GlcNAc(b1-3)GalNAc
In short: (§1)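 Glycan array data were curated from 3228 arrays in the Consortium for Functional Glycomics database and kept only where the protein sequence was available. Glycan names were converted to IUPAC-condensed notation, and columns mapping to the same glycan were averaged. The binding signal is a within-array Z-score, averaged across arrays of the same protein sequence at different concentrations or buffers and across linkers. Negative Z-scores can be read as non-binding.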

[2] = molecular target: GlcNAc(b1-3)Gal(b1-4)GlcNAc(b1-3)GalNAc
In short: as §1

[3] = molecular target: GlcNAc(b1-3)Gal(b1-4)GlcNAc(b1-3)[GlcNAc(b1-3)Gal(b1-4)GlcNAc(b1-3)]GalNAc
In short: as §1

[4] = molecular target: GlcNAc(b1-3)Gal(b1-4)GlcNAc(b1-6)[Gal(b1-3)]GalNAc
In short: as §1

[5] = molecular target: GlcNAc(b1-3)Gal(b1-4)GlcNAc(b1-6)[GlcNAc(b1-3)Gal(b1-3)]GalNAc
In short: as §1

[6] = molecular target: GlcNAc(b1-3)Gal(b1-4)GlcNAc(b1-6)[GlcNAc(b1-3)]Gal(b1-4)GlcNAc
In short: as §1

GlcNAc(b1-3)GalNAc = molecular target: GlcNAc(b1-3)GalNAc
In short: as §1

GlcNAc(b1-3)Man = molecular target: GlcNAc(b1-3)Man
In short: as §1

[7] = molecular target: GlcNAc(b1-3)[GlcNAc(b1-4)][GlcNAc(b1-6)]GlcNAc
In short: as §1

[8] = molecular target: GlcNAc(b1-3)[GlcNAc(b1-6)]Gal(b1-4)GlcNAc
In short: as §1

[9] = molecular target: GlcNAc(b1-3)[GlcNAc(b1-6)]GalNAc
In short: as §1

[10] = molecular target: GlcNAc(b1-4)Gal(b1-4)GlcNAc
In short: as §1

GlcNAc(b1-4)GlcNAc = molecular target: GlcNAc(b1-4)GlcNAc
In short: as §1

[11] = molecular target: GlcNAc(b1-4)GlcNAc(b1-4)GlcNAc
In short: as §1

[12] = molecular target: GlcNAc(b1-4)GlcNAc(b1-4)GlcNAc(b1-4)GlcNAc(b1-4)GlcNAc
In short: as §1

[13] = molecular target: GlcNAc(b1-4)GlcNAc(b1-4)GlcNAc(b1-4)GlcNAc(b1-4)GlcNAc(b1-4)GlcNAc
In short: as §1

[14] = molecular target: GlcNAc(b1-4)[GlcNAc(b1-6)]GalNAc
In short: as §1

[15] = molecular target: GlcNAc(b1-6)Gal(b1-4)GlcNAc
In short: as §1

GlcNAc(b1-6)GalNAc = molecular target: GlcNAc(b1-6)GalNAc
In short: as §1

[16] = molecular target: GlcNAc6S(b1-3)Gal(b1-4)GlcNAc
In short: as §1

Kdn(a2-3)Gal(b1-3)GalNAc = molecular target: Kdn(a2-3)Gal(b1-3)GalNAc
In short: as §1

Kdn(a2-3)Gal(b1-3)GlcNAc = molecular target: Kdn(a2-3)Gal(b1-3)GlcNAc
In short: as §1

Kdn(a2-3)Gal(b1-4)Glc = molecular target: Kdn(a2-3)Gal(b1-4)Glc
In short: as §1

Kdn(a2-3)Gal(b1-4)GlcNAc = molecular target: Kdn(a2-3)Gal(b1-4)GlcNAc
In short: as §1

[17] = molecular target: Kdn(a2-3)Gal(b1-4)[Fuc(a1-3)]GlcNAc
In short: as §1

Kdn(a2-6)Gal(b1-4)GlcNAc = molecular target: Kdn(a2-6)Gal(b1-4)GlcNAc
In short: as §1

[18] = molecular target: Man(a1-2)Man(a1-2)Man(a1-3)Man
In short: as §1

[19] = molecular target: Man(a1-2)Man(a1-2)Man(a1-6)[Man(a1-3)]Man
In short: as §1

Man(a1-2)Man(a1-3)Man = molecular target: Man(a1-2)Man(a1-3)Man
In short: as §1

[20] = molecular target: Man(a1-2)Man(a1-3)[Man(a1-2)Man(a1-6)]Man
In short: as §1

[21] = molecular target: Man(a1-2)Man(a1-3)[Man(a1-2)Man(a1-6)]Man(a1-6)[Man(a1-2)Man(a1-2)Man(a1-3)]Man
In short: as §1

[22] = molecular target: Man(a1-2)Man(a1-3)[Man(a1-2)Man(a1-6)]Man(a1-6)[Man(a1-2)Man(a1-2)Man(a1-3)]Man(b1-4)GlcNAc(b1-4)GlcNAc
In short: as §1

[23] = molecular target: Man(a1-2)Man(a1-3)[Man(a1-6)]Man(a1-6)[Man(a1-2)Man(a1-3)]Man(b1-4)GlcNAc(b1-4)GlcNAc
In short: as §1

[24] = molecular target: Man(a1-2)Man(a1-6)[Man(a1-3)]Man(a1-6)[Man(a1-2)Man(a1-2)Man(a1-3)]Man
In short: as §1

[25] = molecular target: Man(a1-2)Man(a1-6)[Man(a1-3)]Man(a1-6)[Man(a1-2)Man(a1-2)Man(a1-3)]Man(b1-4)GlcNAc(b1-4)GlcNAc
In short: as §1

Man(a1-3)[Man(a1-6)]Man = molecular target: Man(a1-3)[Man(a1-6)]Man
In short: as §1

[26] = molecular target: Man(a1-3)[Man(a1-6)]Man(a1-6)[Man(a1-2)Man(a1-3)]Man(b1-4)GlcNAc(b1-4)GlcNAc
In short: as §1

B1: diCBM40 CPF071 (Clostridium perfringens) (protein)
chain: MAHHHHHHVGTGSNDDDDKSPDPMLSSLGEYKDINLESSNASNITYDLEKYKNLDEGTIVVRFNSKDSKIQSLLGISNSKTKNGYFNFYVTNSRVGFELRNQKNEGNTQNGTENLVHMYKDVALNDGDNTVALKIEKNKGYKLFLNGKMIKEVKDTNTKFLNNIENLDSAFIGKTNRYGQSNEYNFKGNIGFMNIYNEPLGDDYLLSKTGETKALNGSELGSGSGLSSLGEYKDINLESSNASNITYDLEKYKNLDEGTIVVRFNSKDSKIQSLLGISNSKTKNGYFNFYVTNSRVGFELRNQKNEGNTQNGTENLVHMYKDVALNDGDNTVALKIEKNKGYKLFLNGKMIKEVKDTNTKFLNNIENLDSAFIGKTNRYGQSNEYNFKGNIGFMNIYNEPLGDDYLLSKTGETK
glycan array binding signal (z-score) [1]: -0.185
glycan array binding signal (z-score) [2]: -0.263
glycan array binding signal (z-score) [3]: -0.251
glycan array binding signal (z-score) [4]: -0.254
glycan array binding signal (z-score) [5]: -0.315
glycan array binding signal (z-score) [6]: -0.256
glycan array binding signal (z-score) (GlcNAc(b1-3)GalNAc): -0.275
glycan array binding signal (z-score) (GlcNAc(b1-3)Man): -0.296
glycan array binding signal (z-score) [7]: -0.235
glycan array binding signal (z-score) [8]: -0.212
glycan array binding signal (z-score) [9]: -0.226
glycan array binding signal (z-score) [10]: -0.297
glycan array binding signal (z-score) (GlcNAc(b1-4)GlcNAc): 1.48
glycan array binding signal (z-score) [11]: -0.226
glycan array binding signal (z-score) [12]: -0.223
glycan array binding signal (z-score) [13]: -0.321
glycan array binding signal (z-score) [14]: -0.37
glycan array binding signal (z-score) [15]: -0.294
glycan array binding signal (z-score) (GlcNAc(b1-6)GalNAc): -0.279
glycan array binding signal (z-score) [16]: -0.328
glycan array binding signal (z-score) (Kdn(a2-3)Gal(b1-3)GalNAc): -0.262
glycan array binding signal (z-score) (Kdn(a2-3)Gal(b1-3)GlcNAc): -0.291
glycan array binding signal (z-score) (Kdn(a2-3)Gal(b1-4)Glc): -0.094
glycan array binding signal (z-score) (Kdn(a2-3)Gal(b1-4)GlcNAc): -0.193
glycan array binding signal (z-score) [17]: -0.293
glycan array binding signal (z-score) (Kdn(a2-6)Gal(b1-4)GlcNAc): -0.286
glycan array binding signal (z-score) [18]: -0.337
glycan array binding signal (z-score) [19]: -0.285
glycan array binding signal (z-score) (Man(a1-2)Man(a1-3)Man): -0.203
glycan array binding signal (z-score) [20]: -0.321
glycan array binding signal (z-score) [21]: -0.292
glycan array binding signal (z-score) [22]: -0.293
glycan array binding signal (z-score) [23]: -0.083
glycan array binding signal (z-score) [24]: -0.188
glycan array binding signal (z-score) [25]: -0.217
glycan array binding signal (z-score) (Man(a1-3)[Man(a1-6)]Man): -0.344
glycan array binding signal (z-score) [26]: -0.227
